The values that follow come from PMC4336329 (PLoS ONE, 2015).

Structures are written as SMILES. Screen size: about 310,000 compounds; about 14,000 (4.5%) showed an effect of 50% or more. The effect is printed as a negative number. The list shows a part of the results.
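Also: peak tail current of the secondary pulse compared with the same well before compound.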

This test deals with human ether-à-go-go-related gene (hERG) potassium channel (human, UniProt Q12809). Kind of test: primary screen, population patch clamp on CHO cells stably expressing hERG.
Sequence of human ether-à-go-go-related gene (hERG) potassium channel (Q12809 whole entry, looked up): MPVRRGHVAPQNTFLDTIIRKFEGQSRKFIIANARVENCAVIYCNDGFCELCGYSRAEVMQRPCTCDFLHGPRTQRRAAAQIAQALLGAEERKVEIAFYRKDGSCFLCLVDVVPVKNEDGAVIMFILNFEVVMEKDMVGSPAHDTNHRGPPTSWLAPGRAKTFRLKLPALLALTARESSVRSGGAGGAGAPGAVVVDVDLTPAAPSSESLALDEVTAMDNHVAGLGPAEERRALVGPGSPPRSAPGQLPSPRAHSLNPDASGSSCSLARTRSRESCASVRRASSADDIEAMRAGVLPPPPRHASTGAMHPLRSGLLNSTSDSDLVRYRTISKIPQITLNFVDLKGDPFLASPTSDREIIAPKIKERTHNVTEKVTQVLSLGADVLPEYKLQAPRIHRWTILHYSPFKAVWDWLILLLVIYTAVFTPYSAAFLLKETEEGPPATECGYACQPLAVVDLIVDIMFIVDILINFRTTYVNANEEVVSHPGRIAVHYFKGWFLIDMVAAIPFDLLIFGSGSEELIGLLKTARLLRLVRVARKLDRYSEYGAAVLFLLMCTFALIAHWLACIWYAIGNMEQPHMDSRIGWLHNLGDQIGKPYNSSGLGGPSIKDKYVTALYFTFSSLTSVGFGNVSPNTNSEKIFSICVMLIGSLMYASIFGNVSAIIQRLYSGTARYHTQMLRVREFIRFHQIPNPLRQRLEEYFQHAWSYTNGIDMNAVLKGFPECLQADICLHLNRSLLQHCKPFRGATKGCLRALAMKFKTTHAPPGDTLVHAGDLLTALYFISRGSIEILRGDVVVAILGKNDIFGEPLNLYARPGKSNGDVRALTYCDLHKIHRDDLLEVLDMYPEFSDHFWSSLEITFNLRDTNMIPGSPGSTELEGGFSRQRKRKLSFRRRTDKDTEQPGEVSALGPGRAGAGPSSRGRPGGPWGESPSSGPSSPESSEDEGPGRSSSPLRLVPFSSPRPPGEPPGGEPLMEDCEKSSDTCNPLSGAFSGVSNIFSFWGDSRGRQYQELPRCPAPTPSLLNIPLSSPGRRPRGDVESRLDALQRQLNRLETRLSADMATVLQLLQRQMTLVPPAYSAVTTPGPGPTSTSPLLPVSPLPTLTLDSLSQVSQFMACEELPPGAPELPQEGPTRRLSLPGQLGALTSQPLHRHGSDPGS
`COc1ccc(NC(=O)C2=NNC(=O)CC2)cc1S(=O)(=O)N1CCCCC1`: the “hERG current change (%, negative = inhibition) at 10uM” value is listed as -8.63%. The value for `O=C(CN1CCN(c2ccccc2)CC1)Nc1ccc(OCc2ccccc2)cc1` was 2.44%; that for `Cc1cccc(N(Cc2ccccc2)C(=O)c2cccc(S(=O)(=O)N3CC(C)OC(C)C3)c2)c1` (centres unmarked) was -9.56%; that for `COc1ccc(NC(=O)Nc2ccc3nccnc3c2)cc1` was 2.71%.

With `O=C(O)C(Cc1ccccc1-c1ccccc1)C(=O)O`, the “hERG current change (%, negative = inhibition) at 10uM” value is 13.4%. The figure for `CC(=O)Nc1ccc(Oc2ccccc2)cc1` is -2.02%. The value for `Cc1sc(NC(=O)c2sc3nc4c(C)cccc4cc3c2N)c(C#N)c1C` was 8.29%; that for `CC(NS(=O)(=O)c1ccccc1)C(=O)Nc1ccc(S(N)(=O)=O)cc1` (centres unmarked) was 9.52%.

`CN1CCN(S(=O)(=O)c2ccc(NC(=O)c3ccc([N+](=O)[O-])cc3)cc2)CC1`: the “hERG current change (%, negative = inhibition) at 10uM” value was -48.6%. The figure for `O=C(c1ccccc1)N1CCCCC(Sc2nnnn2-c2ccccc2)C1=O` (centres unmarked) is -27.4%. As to `CSc1nc(N(C)C)nc(N(C)C#N)n1`, the “hERG current change (%, negative = inhibition) at 10uM” value is reported as 7.32%. The value for `CC1(C)CCCC2=C1CC1C(=O)N(N)C(=O)C1C2` (centres unmarked) was 5.96%. With `Cc1cc(OCC(O)CN2CCc3ccccc3C2)ccc1Cl.Cl` (centres unmarked), the “hERG current change (%, negative = inhibition) at 10uM” value is recorded as -53.4%. The value for `CCN1C(=O)N[C@H](c2ccccc2)C(C(C)=O)=C1C` was 8.38%; that for `N#Cc1ccc(-c2nnnn2-c2ccc3c(c2)OCO3)cc1` was -18.5%; that for `CC1(C)Cc2c(cnn2-c2ccc(F)cc2)C(NC(=O)CCN2CCCCC2=O)C1` (centres unmarked) was 14.8%. The value for `CCc1nnc(NC(=O)CN2C(=O)/C(=C/c3ccc(OC)c(OC)c3)SC2=S)s1` was 0.819%. The figure for `Cc1ccc(C2CCN(C(=O)Nc3ccccc3)C2)cc1` (centres unmarked) is -6.4%; for `CCOC(=O)C(C)Oc1cccc2c(=O)n(CC(=O)NCCc3ccccc3)ccc12` (centres unmarked) it is -10.3%. Take `Cc1cc2nnc(SCC(=O)Nc3cc(S(=O)(=O)N4CCOCC4)ccc3Cl)n2c2ccccc12`: the “hERG current change (%, negative = inhibition) at 10uM” value was -20.5%. For `CCN(CC)c1ccc(C(=S)NC2CCCCC2)cc1`, the “hERG current change (%, negative = inhibition) at 10uM” value turned out to be 12.6%.

For `Cc1ccc(C)c(Cn2c(=O)n(CCC(=O)NCc3ccco3)c(=O)c3ccccc32)c1`, the “hERG current change (%, negative = inhibition) at 10uM” value is recorded as -14.1%. The figure for `CC1CC(=O)Nc2ccccc2N1S(=O)(=O)c1ccc(C(F)(F)F)cc1` (centres unmarked) is 11.2%; for `C[N+](C)(N)CCOC(=O)C(O)(c1ccccc1)C1CCCCC1.[Br-]` (centres unmarked) it is -21.4%. `O=C(c1ccc(CN2CCOCC2)cc1)N1CCC(Cc2ccccc2)CC1`: the “hERG current change (%, negative = inhibition) at 10uM” value is -3.35%. The figure for `CCOc1ccc(NC(=O)Cn2c(=O)oc3cc(Cl)ccc32)cc1` is 14.6%; for `O=C(NCCC1=CCCCC1)N[C@@H](Cc1ccccc1)C(=O)O` it is 7.41%. For the compound `CN1CCN(C(=O)C(Cc2ccccc2)NS(=O)(=O)c2ccc3c(c2)CCC(=O)N3)CC1` (centres unmarked), the “hERG current change (%, negative = inhibition) at 10uM” value was -3.56%. For `COC(=O)c1ccc(S(=O)(=O)N2CCN(C(c3ccccc3)c3ccccc3)CC2)n1C`, the “hERG current change (%, negative = inhibition) at 10uM” value was determined as 3.6%. The value for `COc1cc(C(=O)NC(=S)NNC(=O)c2ccc3c(c2)OCO3)cc(OC)c1OC` was 8.08%; that for `Cc1ccc(/C=C(\C#N)C(=O)Nc2c(C)cccc2C)s1` was -1.03%. For the compound `CC1(C)CC(=O)C(C=NCCN2CCN(C(=O)CCl)CC2)=C(O)C1`, the “hERG current change (%, negative = inhibition) at 10uM” value is reported as 7.59%. The value for `CCCCn1c(SCC2CCCO2)nc2cc(S(N)(=O)=O)ccc21` (centres unmarked) was -43.1%; that for `O=C(CCc1ccccc1)NCc1ccc2c(c1)OCO2` was 4.27%; that for `CC(C)Oc1nc(-c2ccccc2Cl)nc2ccccc12` was 19.1%.

As for `CCN(CC(=O)NCc1cccs1)C(=O)COc1ccccc1C#N`, the “hERG current change (%, negative = inhibition) at 10uM” value is recorded as -6.06%. The figure for `CC1CCN(C(=O)c2[nH]cnc2C(=O)Nc2ccc(Cl)cc2)CC1` is 20.7%; for `COc1ccc(C(=O)CSc2nc(SC)ns2)cc1OC` it is 3.84%. For `CC(=O)Nc1ccc(S(=O)(=O)N(C)c2nc3ccccc3nc2Cl)cc1`, the “hERG current change (%, negative = inhibition) at 10uM” value is on record as -24.8%. With `Cc1ccc(S(=O)(=O)N2CCCC2=O)c(C)c1N(C)S(C)(=O)=O`, the “hERG current change (%, negative = inhibition) at 10uM” value was found to be 6.49%. As for `CCNC(=S)N/N=C/c1cccc(/C=N/NC(=S)NCC)c1`, the “hERG current change (%, negative = inhibition) at 10uM” value is 21.5%.

Consider `O=C(CCc1nc2ccccc2c(=O)[nH]1)Nc1ccc(F)c([N+](=O)[O-])c1`, for which the “hERG current change (%, negative = inhibition) at 10uM” value is -26.7%. The value for `COc1c(/C=C2/C(=O)NC(=O)N(C)C2=O)c(CCN(C)C(=O)c2ccccc2)cc2c1OCO2` was 7.3%. Regarding `CCOC(=O)C1=C(C)NC(C)=C(C(=O)OCC)C1c1ccc(Br)o1`, the “hERG current change (%, negative = inhibition) at 10uM” value is -5.54%. The value for `CC(C)c1c(C(=O)N/N=C/c2cccc(OCc3ccc(F)cc3)c2)nnn1-c1nonc1N` was 24.9%; that for `N#CCCn1cc(C(=O)O)c(-c2cccs2)n1` was 36.2%; that for `CCOC(=O)C1=C(O)CCn2c1nc1ccccc12` was -6.92%.

For the compound `CSc1nc2ccccc2n1C(=O)Oc1ccccc1`, the “hERG current change (%, negative = inhibition) at 10uM” value is -4.58%. The value for `CC(=O)Nc1ccc(NC(=O)C2CCN(C(=O)NC3CCCCC3)CC2)cc1` was 16%. The figure for `O=C(Nc1cccc(O)c1)c1cnn2cccnc12` is -1.77%; for `Cn1cccc1Cc1nnc(SCC(=O)Nc2cccc(Cl)c2)n1-c1ccc(F)cc1` it is -46%.

Regarding `COc1cc(O)c2c(c1)COC2=O`, the “hERG current change (%, negative = inhibition) at 10uM” value worked out at 5.36%. Consider `Cc1ccc(C(=O)Nc2cccc(-c3ccc(N4CCOCC4)nn3)c2)cc1`, for which the “hERG current change (%, negative = inhibition) at 10uM” value was -3.27%. In the case of `Cc1cc(-c2nnnn2-c2cc(Cl)cc(Cl)c2)no1`, the “hERG current change (%, negative = inhibition) at 10uM” value turned out to be 6.06%. Take `Cc1ccc(C(=O)NC2CC3CCC(C2)N3)cc1` (centres unmarked): the “hERG current change (%, negative = inhibition) at 10uM” value worked out at 28.8%.

Regarding `Cc1ccc(CNC(=O)CCC2CCCN(Cc3cccc4cccnc34)C2)o1` (centres unmarked), the “hERG current change (%, negative = inhibition) at 10uM” value is on record as -66%. The value for `Cc1cccc(C(=O)c2c[nH]cc2-c2ccccc2)c1` was 1.28%. The figure for `O=C(CSc1nc2ccccc2c(=O)n1NC(=O)Cc1ccccc1)NCCc1ccccc1` is -14.6%; for `Cl.O=S(=O)(CCC1CCCCN1)c1ccccc1` (centres unmarked) it is 8.11%; for `O=c1oc(Cc2ccccc2)nc2ccccc12` it is 27.2%. In the case of `CCCCn1c(SCC(=O)N2CCCC2)nc2cc(S(N)(=O)=O)ccc21`, the “hERG current change (%, negative = inhibition) at 10uM” value was found to be 9.3%. Consider `COc1ccc(Nc2ncccc2C(=O)Nc2ccccc2)cc1`, for which the “hERG current change (%, negative = inhibition) at 10uM” value is -9.63%. The figure for `O=C(NCCc1ccccc1)C1CCN(C(=O)Nc2ccccc2)CC1` is 8.37%; for `Cn1c(=O)oc2cc(S(=O)(=O)N3CCc4ccccc43)ccc21` it is -16.8%; for `CC1CCCN(C(=O)CNC(=O)c2cccs2)C1` (centres unmarked) it is 3.17%.

For `COc1ccc(NC(=O)c2ccc(C(=O)c3cc(OC)ccc3OC)cc2)cc1`, the “hERG current change (%, negative = inhibition) at 10uM” value worked out at 8.73%. The figure for `COc1cc(CN2CCNC(=O)C2CC(=O)NCCCN2CCOCC2)cc(OC)c1` (centres unmarked) is 21.5%; for `CCCCN(C)CCNC(=O)c1c[nH]c2ccc(S(=O)(=O)N(CC)CC)cc2c1=O` it is -1.8%. Take `O=C(NC1CC1)C1CCN(c2nc3ccccc3s2)CC1`: the “hERG current change (%, negative = inhibition) at 10uM” value is -5.63%. As for `Cc1cccc(N(CC(=O)NCC2CCCO2)C(=O)CCC(=O)Nc2cc(C)on2)c1` (centres unmarked), the “hERG current change (%, negative = inhibition) at 10uM” value is recorded as 4.8%.

`COc1ccc(N2C(=O)CSC2c2ccc3c(c2)OCO3)c(OC)c1` (centres unmarked): the “hERG current change (%, negative = inhibition) at 10uM” value is -3.71%. The value for `CC(C(=O)N1CCCCC1)n1ncn2cccc2c1=O` (centres unmarked) was 2.12%; that for `Cc1ccc(-c2nn(-c3ccccc3)cc2C(=O)NN2CCN(C)CC2)cc1.Cl` was 19.1%; that for `O=C(CSc1cccc[n+]1[O-])Nc1cccc(Oc2ccccc2)c1` was -10.5%. The figure for `O=C(NCc1ccco1)c1cc2nc(-c3cccs3)cc(C(F)(F)F)n2n1` is -17.6%; for `CN(C)CCCN(C(=O)c1nc2ccccc2s1)c1nc2ccc(F)cc2s1.Cl` it is 4.17%. The figure for `CN(C)c1ccc(C(CNS(=O)(=O)c2ccc3ccccc3c2)N2CCOCC2)cc1` (centres unmarked) is -19.9%; for `CCOC(=O)C1CCN(C(=O)CCCCn2c(=O)[nH]c3ccccc3c2=O)CC1` it is -17.1%; for `CSc1nc(NCc2ccco2)c2c3c(sc2n1)CN(C)CC3` it is -75%. As for `COC(=O)CN1C(=S)N(C)C(=O)/C1=C/c1cccs1`, the “hERG current change (%, negative = inhibition) at 10uM” value is listed as 5.21%. `O=C(CN1C(=O)NC2(CCCCCC2)C1=O)NCc1cccs1`: the “hERG current change (%, negative = inhibition) at 10uM” value was 7.72%. The figure for `CCOc1ccc(NS(=O)(=O)c2ccc3[nH]c(=O)oc3c2)cc1` is 1.46%. The figure for `CCC1=C(OC(=O)N(CC)CC)N2C(=O)OC(=NCC3CC3)[C@]2(Cc2ccccc2)[C@H]2C1=CC[C@H]1C(=O)N(c3ccccc3)C(=O)[C@H]12` is -1.36%; for `COC(=O)[C@H](C)[C@@H]1C[C@@]1(C)[C@@H](NC(=O)OCc1ccccc1)c1ccccc1` it is -27%. `CCCOc1ccc(CCC(=O)O)cc1`: the “hERG current change (%, negative = inhibition) at 10uM” value is given as 10.6%.

Regarding `CCOc1cc(N2CCOCC2)c(OCC)cc1NC(=O)COC(=O)c1cc(C)cc(C)c1`, the “hERG current change (%, negative = inhibition) at 10uM” value is -3.29%. Turning to `O=C(Cn1c(=O)n(-c2ccccc2)c(=O)n1CC(=O)N1CCCCC1)N1CCCCC1`, the “hERG current change (%, negative = inhibition) at 10uM” value came to 9.19%. As for `Oc1c(/C=N/Nc2cccc3cccnc23)ccc2ccccc12`, the “hERG current change (%, negative = inhibition) at 10uM” value amounted to 10.7%.

For `COc1ccc([C@@H](NC(=O)OC(C)(C)C)C(=O)OC(C)(C)C)cc1`, the “hERG current change (%, negative = inhibition) at 10uM” value was -1.98%.
